# From PubChem BioAssay AID2147 (National Center for Advancing Translational Sciences (NCATS), 2009)
# Several values for one entry are separate records, joined by “and”; a condition that tells them apart may be missing. Equal entries are not always repeated. In all, about 230,000 compounds went through this assay and about 3,600 (1.6%) were called active. Inconclusive means that the source gave no clear call. Such entries were picked first, then a sample of the others. Calls follow the shape of the dose curve; as a rule, active = well fitted inhibition curve with a large enough effect (not every such curve was filed as active); inconclusive = small, poorly fitted or top-dose-only effect, or another doubt; inactive = no such curve, though single readings can be large or run the other way. Potencies of inconclusive entries are doubtful fits and often do not repeat. Some compounds were tested as several samples or in several runs, with calls that do not always agree.
# Target: Lysine-specific demethylase 4E (Homo sapiens) (UniProt B2RXH2)
# Assay: qHTS Assay for Inhibitors of Human Jumonji Domain Containing 2E (JMJD2E)
# Settings: JMJD2E catalytic domain, FDH-coupled NADH fluorescence (FDH is formaldehyde dehydrogenase); series mostly up to 57.1 µM
# Also: nearly all actives have a fitted effect of over 50% in size.
# Potency is read from the fitted curve at half-maximal effect; tags tell the direction and shape of the fitted curve.
# Sequence of UniProt B2RXH2 (B2RXH2 whole entry, looked up, the tested form may be a part): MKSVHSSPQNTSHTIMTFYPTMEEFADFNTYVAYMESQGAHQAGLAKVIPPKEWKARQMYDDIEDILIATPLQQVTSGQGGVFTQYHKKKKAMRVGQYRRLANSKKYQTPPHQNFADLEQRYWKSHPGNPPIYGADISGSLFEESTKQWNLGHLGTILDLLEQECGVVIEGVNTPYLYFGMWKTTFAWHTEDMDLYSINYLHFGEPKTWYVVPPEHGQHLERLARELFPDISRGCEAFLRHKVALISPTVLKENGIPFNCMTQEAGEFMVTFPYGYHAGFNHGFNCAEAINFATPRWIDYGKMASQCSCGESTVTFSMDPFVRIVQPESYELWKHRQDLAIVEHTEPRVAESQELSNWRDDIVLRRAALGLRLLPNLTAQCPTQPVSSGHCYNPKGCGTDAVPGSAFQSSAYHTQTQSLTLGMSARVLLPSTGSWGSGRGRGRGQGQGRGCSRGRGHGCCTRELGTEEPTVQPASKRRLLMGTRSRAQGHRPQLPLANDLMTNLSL
row,Compound,Potency
1,CC(=O)c1ccc(Nc2nc(C)nc3c2oc2ccccc23)cc1,"inconclusive: 35.5 µM [inhibitor, single point]"
2,CC(=O)NS(=O)(=O)c1ccc(N=NN2CCOCC2)cc1,inactive
3,Clc1cccc2c1Sc1ccccc1CC2N1CCNCC1 (centres undefined),inactive
4,COc1cc(/C=C2/CC/C(=C/c3ccc(O)c(OC)c3)C2=O)ccc1O,active: 11.2 µM
5,Cc1ccc(N2CCCn3c2cc(C)c(C#N)c3=O)cc1Cl,"inconclusive: 11.2 µM [inhibitor, partial curve]"
6,CCOc1ccc(C2OC34CCCCC3C(C#N)(C#N)C2(C#N)C(=N)O4)cc1OC (centres undefined),"inconclusive: 31.6 µM [inhibitor, partial curve]"
7,CCOC(=O)c1c(C)[nH]c(C=Nc2ccccc2)c1O,"inconclusive: 31.6 µM [inhibitor, single point]"
8,COc1cc(C2C(C#N)=C(N)Oc3cc(C)oc(=O)c32)cc2c1OCO2 (centres undefined),"inconclusive: 39.8 µM [inhibitor, single point]"
9,CN(C)/C=N/c1nccc(-c2cccs2)n1,"inconclusive: 28.2 µM [inhibitor, partial curve]"
10,FC(F)(F)c1nc(-c2cccnc2)ncc1-c1nnnn1-c1ccccc1,inactive
11,COc1ccc(C2CC(c3cccs3)=NN2C(=O)CSc2nc3c(cnn3-c3ccccc3)c(=O)[nH]2)cc1 (centres undefined),"inconclusive: 3.55 µM [inhibitor, partial curve]"
12,CCOC(=O)c1cnc2ccc(C)cn2c1=O,"inconclusive: 8.91 µM [inhibitor, partial curve]"
13,O=c1nc(N2CCOCC2)nc(N/N=C/c2ccc3c(c2)OCO3)[nH]1,"inconclusive: 31.6 µM [inhibitor, single point]"
14,N#CC1=C(N)Oc2c(sc3ccccc23)C1c1ccco1 (centres undefined),"inconclusive: 31.6 µM [inhibitor, partial curve]"
15,CN(Cc1ccccc1)S(=O)(=O)c1ccc2c(c1)n(C)c(=O)c(=O)n2C,"inconclusive: 35.5 µM [inhibitor, single point]"
16,CCc1ccc(OCC(=O)O/N=C(\N)c2ccccn2)cc1,inactive
17,CC1=C(C(=O)Nc2ccccc2)C(c2ccc(C)o2)n2c(s/c(=C/c3ccccc3)c2=O)=N1 (centres undefined),"inconclusive: 39.8 µM [inhibitor, single point]"
18,O=C(NC(=S)Nc1cccc(NC(=S)NC(=O)c2ccco2)n1)c1ccco1,inactive
19,CC1=CC(C)(C)Nc2ccc(OC(=O)CN3C(=O)CCC3=O)cc21,"inconclusive: 28.2 µM [inhibitor, single point]"
20,Cc1ccc(S(=O)(=O)N2CCC(N3CCCCCC3)CC2)cc1,"inconclusive: 31.6 µM [inhibitor, single point]"
21,CCn1cc(/C=N/NC(=O)c2cc3c(ccc4ccccc43)o2)c2ccccc21,"inconclusive: 31.6 µM [inhibitor, partial curve]"
22,Cn1c2ccc(F)cc2c2ncn(Cc3ccccn3)c(=O)c21,"inconclusive: 28.2 µM [inhibitor, partial curve]"
23,Cc1ccc(N2C(=O)CC(N(O)C3CC(=O)N(c4ccc(C)cc4)C3=O)C2=O)cc1 (centres undefined),inactive

row,Compound,Potency
1,CCN(C(=O)Cc1ccccc1OC)c1nnc(-c2ccncc2)s1,"inconclusive: 39.8 µM [inhibitor, single point]"
2,O=C(OCc1nc2ccccc2s1)c1cc2ccccc2oc1=O,"inconclusive: 25.1 µM [inhibitor, single point]"
3,Cc1cc(C)n(-c2ccc(C(=O)NCc3ccc(F)cc3)cc2)n1,inactive
4,CCN(C(=O)COc1cccc2cccnc12)C1CCS(=O)(=O)C1 (centres undefined),"inconclusive: 35.5 µM [inhibitor, single point]"
5,CCOc1ccc(Nc2oc(-c3cccs3)nc2C#N)cc1,"inconclusive: 31.6 µM [inhibitor, single point]"
6,Cc1ccc2c(c1)cc(CN(C(=O)N1CCOCC1)C1CCCC1)c1nnnn12,inactive
7,Cc1ccc(NC(=O)Cn2c([N+](=O)[O-])cnc2C)cc1,"inconclusive: 20 µM [inhibitor, partial curve]"
8,CCOc1cc(Cl)c(NC(=O)c2ccco2)cc1OCC,"inconclusive: 39.8 µM [inhibitor, single point]"
9,CC/C(=C/c1sc2ccccc2[n+]1CC)SC,inactive
10,CCOCCCn1c(-c2ccc(Cl)cc2)n[nH]c1=S,inactive
11,c1ccc(-c2[nH]ncc2CN2CCN(Cc3ccc4c(c3)OCO4)CC2)cc1,inactive
12,Cc1nc2ccccc2c2c1CC(C)S2 (centres undefined),"inconclusive: 35.5 µM [inhibitor, single point]"
13,COc1ccc(C(=O)NCc2ccc(-c3nc4ccccc4s3)cc2)cc1OC,"inconclusive: 39.8 µM [inhibitor, single point]"
14,COc1ccc(C(CC(=O)N2CCCC2)c2c(OC)cc(OC)c3c(-c4ccccc4)cc(=O)oc23)cc1 (centres undefined),"inconclusive: 35.5 µM [inhibitor, single point]"
15,O=c1[nH]c(-c2cccnc2)nc2sc(-c3ccccc3)cc12,"inconclusive: 15.8 µM [inhibitor, partial curve]"
16,N#CC1=C(c2ccc(-c3ccccc3)cc2)COC1=O,"inconclusive: 28.2 µM [inhibitor, single point]"
17,Cc1ccc(-c2nnc3ccc(SC(C)C(=O)O)nn23)cc1 (centres undefined),"inconclusive: 28.2 µM [inhibitor, partial curve]"
18,Cc1c(Cl)cccc1NC(=S)NC(=O)CCN1C(=O)c2ccccc2C1=O,inactive
19,Cc1ccc(C)c2[nH]c(=O)c(CN(Cc3cccnc3)C(=S)NCc3ccco3)cc12,"inconclusive: 31.6 µM [inhibitor, single point]"
20,COc1cc2c(cc1OC)C(=O)NCC(C)(C)O2,"inconclusive: 31.6 µM [inhibitor, single point]"
21,COc1ccc(-c2nc(N)n[nH]2)cc1OC,"inconclusive: 35.5 µM [inhibitor, single point]"
22,CCCCN(Cc1cc2cc(OC)ccc2[nH]c1=O)C(=O)c1ccco1,"inconclusive: 28.2 µM [inhibitor, partial curve]"
23,CN(C)c1ccc(/C=C(\C#N)C(=O)c2ccccc2)cc1,inactive

row,Compound,Potency
1,CCC(Oc1ccc2c(c1)C(=O)CC(C)(C)O2)C(=O)NCCN1CCCCCC1 (centres undefined),"inconclusive: 14.1 µM [inhibitor, partial curve]"
2,CCOc1ccc2ccccc2c1/C=N\NC(=O)OC,"inconclusive: 35.5 µM [inhibitor, single point]"
3,CC(Nc1nc2ncn(Cc3ccccc3)c2c(=O)[nH]1)C(=O)O (centres undefined),inactive
4,Cc1ccc(-n2nc(C)c3c(C)c(CCC(=O)Nc4ccc(CN5CCCC5)cc4)c(C)nc32)cc1,"inconclusive: 28.2 µM [inhibitor, partial curve]"
5,Cc1ccc(-c2csc(-c3c[nH]c4ccccc34)n2)cc1,"inconclusive: 39.8 µM [inhibitor, single point]"
6,O=C(NCc1ccco1)c1nn2c(C(F)(F)F)cc(-c3cccs3)nc2c1Br,inactive
7,COc1cccc(Oc2ccc(N)cn2)c1,"inconclusive: 35.5 µM [inhibitor, partial curve]"
8,O=C(NCc1cccs1)C1CCN(c2ccc(S(=O)(=O)N3CCOCC3)cc2Cl)CC1,inactive
9,CCOC(=O)C1(Cc2cccc(OC)c2)CCN(CC2CC=CCC2)CC1 (centres undefined),"inconclusive: 39.8 µM [inhibitor, single point]"
10,O=C(O)c1ccc(-c2ccc(/C=C3\NC(=O)N(Cc4ccc(Cl)cc4)C3=O)o2)cc1,"inconclusive: 14.1 µM [inhibitor, partial curve]"
11,O=C(c1cccs1)N1CCC(c2ccccc2)C1 (centres undefined),inactive
12,FC(F)(F)c1nc2ccccc2nc1N/N=C\c1ccccc1,"inconclusive: 3.16 µM [inhibitor, single point]"
13,COC(=O)[C@@]1(Cc2ccccc2)[C@H]2c3cc(C(=O)N(C)C)n(Cc4ccc(O)c(OC)c4)c3C[C@H]2CN1C(=O)c1ccccc1,inactive
14,COc1ccc(OC)c([N+](=O)[O-])c1C(N)=O,"inconclusive: 39.8 µM [inhibitor, single point]"
15,COc1cccc(-c2cc(-c3cccnc3)nc(N)c2C#N)c1,"inconclusive: 14.1 µM [inhibitor, partial curve]"
16,CSc1sc(C)cc1C1C(C#N)=C(N)N(c2cccnc2)C2=C1C(=O)CC(C)(C)C2 (centres undefined),inactive
17,Cc1ccc2c(c1)C(=O)CC(O)(C(F)(F)F)O2 (centres undefined),"inconclusive: 28.2 µM [inhibitor, partial curve]"
18,CCOC(=O)CCNC(=O)Nc1ccc2nc(C)n(Cc3cccc(Cl)c3)c(=O)c2c1,"inconclusive: 25.1 µM [inhibitor, single point]"
19,COc1ccc(S(=O)(=O)N(CC(=O)O)Cc2ccccc2)cc1OC,"inconclusive: 25.1 µM [inhibitor, single point]"
20,CCN(CC)C(=O)c1sc(NC(=O)C(Sc2ccccc2)c2ccccc2)c(C(=O)OC(C)C)c1C (centres undefined),inactive
21,O=C(NCC1CCCO1)c1ccc2c(=O)n(CC3CCCO3)c(SCC(=O)N3CCCC3)nc2c1 (centres undefined),"inconclusive: 28.2 µM [inhibitor, single point]"
22,COc1cccc2c1C(=O)c1c(O)c3c(c(O)c1C2=O)C[C@@](O)(C(C)=O)C[C@@H]3O[C@H]1C[C@H](N)[C@H](O)[C@H](C)O1,inactive and active: 35.5 µM
23,Cn1c2ccccc2c2c(C(=O)NCc3ccco3)cn(C3CCCCC3)c(=O)c21,"inconclusive: 14.1 µM [inhibitor, partial curve]"
